The structures appear in SMILES notation. This is one part of the list.

One test concerns HSkMC. Nature of the test: cytotoxicity call (relative viability < 0.9). The settings on record: 10 µM.
For the next test, the system named is HepG2. Description: cytotoxicity call (relative viability < 0.9). The settings on record: 10 µM.
The subject of another test is S. aureus RN4220. Description: growth inhibition call (relative growth <= 0.2). The settings on record: 50 µM.

With `COc1cccc(-c2cccc(-c3nc(C(=O)N[C@@H]4CCN(Cc5ccccc5)C4)cc4c3[C@H](CCO)N(S(=O)C(C)(C)C)C4)c2)c1` (stereo partly specified), the cytotoxicity call with HSkMC and with HepG2 was “inactive” throughout. Further, the growth inhibition call with S. aureus RN4220 was “inactive”.

With `C[C@H](CO)N1C[C@H](C)[C@@H](CN(C)C(=O)C2CCC2)Oc2cc(-c3ccc(C(=O)N(C)C)cc3)ccc2S1(=O)=O`, the cytotoxicity call in the test with HSkMC and in the test with HepG2 was “inactive” throughout. Moreover, the growth inhibition call in the test on S. aureus RN4220 was “inactive”.

In the case of `C[C@@H]1CN([C@@H](C)CO)C(=O)c2cc(NS(=O)(=O)c3ccc(Cl)cc3)ccc2O[C@@H](C)CCCCO[C@H]1CN(C)CC1CC1`, the cytotoxicity call with HSkMC and in the test on HepG2 was “inactive” throughout. In addition, the growth inhibition call with S. aureus RN4220 was “inactive”.

Regarding `Cc1ccc(S(=O)(=O)N(C)C[C@@H]2Oc3ccc(NC(=O)Nc4ccc(C(F)(F)F)cc4)cc3C(=O)N([C@@H](C)CO)C[C@@H]2C)cc1`, the cytotoxicity call in the test with HSkMC and with HepG2 was “inactive” throughout. For the same molecule, the growth inhibition call with S. aureus RN4220 is “inactive”.

Take `COCC#Cc1ccc2c(c1)O[C@H](CN(C)Cc1ccccc1F)[C@H](C)CN([C@@H](C)CO)S2(=O)=O`: the cytotoxicity call with HSkMC and in the test on HepG2 was “inactive” each time. In the test with S. aureus RN4220, the growth inhibition call is “inactive”.

Regarding `Cc1ccc(S(=O)(=O)N(C)C[C@@H]2OCCCC[C@@H](C)Oc3ccc(NS(C)(=O)=O)cc3C(=O)N([C@@H](C)CO)C[C@@H]2C)cc1`, the cytotoxicity call in the test with HSkMC and with HepG2 was “inactive” throughout. Further, the growth inhibition call in the test on S. aureus RN4220 is “inactive”.

On to `C[C@H](CO)N1C[C@H](C)[C@@H](CN(C)S(C)(=O)=O)Oc2ccc(NS(=O)(=O)c3ccccc3)cc2C1=O`, for which the cytotoxicity call in the test on HSkMC and with HepG2 was “inactive” in each case. Moreover, in the test with S. aureus RN4220, the growth inhibition call is “inactive”.

In the case of `C[C@@H]1CN([C@@H](C)CO)S(=O)(=O)c2ccc(C#C[C@@H](C)O)cc2O[C@@H]1CN(C)C(=O)c1ccncc1`, the cytotoxicity call in the test with HSkMC and with HepG2 was “inactive” in each case. In addition, the growth inhibition call in the test with S. aureus RN4220 was “inactive”.

As to `C[C@@H]1CN([C@@H](C)CO)C(=O)c2cccc(NC(=O)c3ccncc3)c2O[C@@H]1CN(C)S(=O)(=O)c1ccccc1`, the cytotoxicity call in the test on HSkMC was “inactive”. Also, the cytotoxicity call in the test with HepG2 was “active”. Further, the growth inhibition call in the test on S. aureus RN4220 was “inactive”.

For `C[C@@H]1CN([C@@H](C)CO)S(=O)(=O)c2ccc(Br)cc2O[C@H]1CN(C)CC1CCOCC1`, the cytotoxicity call in the test on HSkMC (human skeletal muscle cells) and with HepG2 was “inactive” each time. The growth inhibition call in the test on S. aureus RN4220 is “inactive”.

With `CCS(=O)(=O)NCC[C@@H]1CC[C@H](NS(=O)(=O)c2ccccc2C)[C@H](CO)O1`, the cytotoxicity call in the test with HSkMC and in the test with HepG2 was “inactive” throughout. The growth inhibition call in the test with S. aureus RN4220 is “inactive”.

Consider `C[C@H](CO)N1C[C@H](C)[C@@H](CN(C)C(=O)NC2CCCCC2)Oc2c(NS(C)(=O)=O)cccc2C1=O`, for which the cytotoxicity call in the test with HSkMC and with HepG2 was “inactive” in each case. Besides, the growth inhibition call in the test with S. aureus RN4220 is “inactive”.
